Structures are written as SMILES.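 Results reflect a 48-hour exposure of cells in 96-well plates to compound at five concentrations. Abbreviation: GI50, concentration required for 50% inhibition of growth.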 A number of entries come with more than one value. The list is limited to them. An entry can have further records. For part of these data: Records of one sample usually come from different ranges of test concentrations, which the source does not state; some values may only mark the edge of a range. For part of these data: Values given together are repeated measurements in other runs, samples, wells, individuals or studies. What stands in brackets tells the records apart. A, B and so on number the origins entry by entry.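 TGI: concentration producing complete growth inhibition.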

Among the data in PubChem BioAssay (NCI) are GI50 and TGI values, retold here.

Some test systems named below: LOX IMVI melanoma; MCF7 breast; UACC-62 melanoma; SN12C renal; CCRF-CEM leukemia; OVCAR-3 ovarian; HCC-2998 colon; SF-539 CNS; M14 melanoma; SK-MEL-28 melanoma; SR leukemia; HT29 colon; HL-60(TB) leukemia; CAKI-1 renal; UO-31 renal; EKVX NSCLC; HOP-62 NSCLC; HOP-92 NSCLC; HCT-15 colon; SF-268 CNS; SF-295 CNS; HCT-116 colon; OVCAR-8 ovarian; SK-OV-3 ovarian; DLD-1 colon; UACC-257 melanoma.

Test in all cases: NCI anticancer screen, dose series, 48 h

Turning to `CC1(C)CC(=O)c2c(ccc(C(=O)C[C@H](N)CO)c2N)O1`, the GI50 in the assay on LOX IMVI melanoma is 2.85 µM and 64.8 nM; with MCF7 breast, 2.41 µM and 169 nM; with UACC-62 melanoma, 2.69 µM and 233 nM; in the assay with SN12C renal it was 5.7 µM and 416 nM; in the assay with CCRF-CEM leukemia, 5.38 µM and 186 nM; in the assay on OVCAR-3 ovarian it was 2.2 µM and 201 nM. Besides, the GI50 with HCC-2998 colon is 3.59 µM and 214 nM; with SF-539 CNS, 3.57 µM and 336 nM; in the assay with M14 melanoma, 5.56 µM and 303 nM; with SK-MEL-28 melanoma, 4.41 µM and 238 nM; with HT29 colon it was 1.92 µM and 141 nM. The TGI is 17.5 µM and 135 nM with LOX IMVI melanoma; 17.5 µM and 269 nM in the assay with SR leukemia.
As for `C/C(=N\NC(=O)c1ccccc1O)c1cccc(/C(C)=N/NC(=O)c2ccccc2O)n1`, the TGI in the assay on HL-60(TB) leukemia is 9.46 µM [sample A, mean of 5 tests] and > 100 µM [sample B, mean of 2 tests]. In addition, the GI50 with CAKI-1 renal is 27.6 µM [sample A, mean of 3 tests] and 333 nM [sample B, 1 test]; in the assay with UO-31 renal, 4.42 µM [sample A, mean of 5 tests] and 420 nM [sample B, mean of 2 tests].
On to `Nc1ncnc2c(C3OC(CO)C(O)C3O)[nH]nc12` (stereo not drawn), for which the TGI in the assay on MCF7 breast is 30.1 µM and 611 nM; in the assay on EKVX NSCLC it was 17.9 µM and 695 nM; with HOP-62 NSCLC, 17.7 µM and 343 nM; in the assay on UO-31 renal it was 11.8 µM and 701 nM; in the assay with HOP-92 NSCLC, 3.83 µM and 158 nM.
Take `COc1cc2c(c(OC)c1OC)-c1ccc(SC)c(=O)cc1[C@@H](NCc1cccc(C#N)c1)CC2`: the TGI in the assay with HCT-15 colon is 75.2 nM and > 75 µM; in the assay with HL-60(TB) leukemia, 646 nM and < 7.5 nM; with SF-268 CNS it was 98.9 nM and > 75 µM; in the assay with SF-295 CNS it was 487 nM and > 75 µM; with HCT-116 colon it was 49.1 nM and > 75 µM; in the assay on OVCAR-8 ovarian it was 54 nM and > 75 µM. For the same compound, the TGI in the assay on SK-OV-3 ovarian was 60.8 nM and 2.13 µM; in the assay on M14 melanoma, 145 nM and < 7.5 nM.
Turning to `Nc1ncnc2c(C3OC(CO)C(O)C3O)scc12` (stereo not drawn), the TGI is 63.5 nM and 731 nM in the assay on OVCAR-8 ovarian; 1.6 µM and 50.2 nM in the assay with UACC-62 melanoma; 54.4 nM and 1.09 µM in the assay on DLD-1 colon; 795 nM and 12.9 µM with UACC-257 melanoma.
